Results from patent US20240368303A1 (ZHEJIANG SHIMAI PHARMACEUTICAL, published 2024).

Experiments:
[1] = target: cell surface-associated GPC3 on human cancer cell lines (human, UniProt P51654 25-560); test: cell-based or functional assay
[2] = target: T1, recombinant human GPC3 (full-length extracellular domain) (human, UniProt P51654 25-559); test: ELISA as in Example 4, GPC3 coated
T1 construct: extracellular domain; Bought protein coated on ELISA plates; also called human GPC3 protein
Description: (§1) ELISA was performed according to standard protocols, to determine binding affinity of anti-GPC3 1A1 mAb to recombinant GPC3 from human, cynomolgus, and mouse and anti-GPC3 6A4 mAb to recombinant human GPC3. Briefly, recombinant GPC3 (AcroBiosystems) was coated on Corning EIA/RIA high-binding 96-well plates (Corning Inc.) at 50 ng per well overnight at 4° C. and blocked with 3% nonfat milk in PBS (pH7.4). Fivefold serially diluted biotinylated antibodies were added and incubated at room temperature for 2 h. The plates were washed with PBS containing 0.05% Tween 20. Bound antibodies were detected by HRP-conjugated streptavidin (Sino Biological). The assay was developed at room temperature with TMB substrate (Solarbio) and monitored at 450 nm with a microplate reader. The half-maximal binding (EC₅₀) was calculated by fitting the data to the Langmuir adsorption isotherm.
(§2) To determine binding affinity of the bispecific antibodies 1A1-based GPC3×CD3 HBiTE and 6A4-based GPC3×CD3 HBiTE to both GPC3 and CD3, ELISA was performed as described in Example 4, with the coating proteins of human, cynomolgus or mouse GPC3, or human CD3.

[3] = target: T2, recombinant cynomolgus GPC3 (cynomolgus, UniProt A0A2K5VK50 24-558); test: ELISA as in Example 4, GPC3 coated
T2 construct: Bought protein; also called cynomolgus GPC3 protein
Description: as §1, §2

recombinant mouse GPC3 = target: T3, recombinant mouse GPC3 (mouse, UniProt Q8CFZ4 25-558, limits assumed); test: ELISA as in Example 4, GPC3 coated
T3 construct: Bought protein; also called mouse GPC3 protein
Description: as §1, §2

recombinant human CD3 = target: T4, recombinant human CD3 (human); test: ELISA as in Example 4, human CD3 coated
T4 chain: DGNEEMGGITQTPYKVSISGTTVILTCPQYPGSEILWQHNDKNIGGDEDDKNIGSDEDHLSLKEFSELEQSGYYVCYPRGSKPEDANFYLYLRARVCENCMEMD
Description: as §1, §2

Chain of recombinant mouse GPC3 (Q8CFZ4 25-558 limits assumed): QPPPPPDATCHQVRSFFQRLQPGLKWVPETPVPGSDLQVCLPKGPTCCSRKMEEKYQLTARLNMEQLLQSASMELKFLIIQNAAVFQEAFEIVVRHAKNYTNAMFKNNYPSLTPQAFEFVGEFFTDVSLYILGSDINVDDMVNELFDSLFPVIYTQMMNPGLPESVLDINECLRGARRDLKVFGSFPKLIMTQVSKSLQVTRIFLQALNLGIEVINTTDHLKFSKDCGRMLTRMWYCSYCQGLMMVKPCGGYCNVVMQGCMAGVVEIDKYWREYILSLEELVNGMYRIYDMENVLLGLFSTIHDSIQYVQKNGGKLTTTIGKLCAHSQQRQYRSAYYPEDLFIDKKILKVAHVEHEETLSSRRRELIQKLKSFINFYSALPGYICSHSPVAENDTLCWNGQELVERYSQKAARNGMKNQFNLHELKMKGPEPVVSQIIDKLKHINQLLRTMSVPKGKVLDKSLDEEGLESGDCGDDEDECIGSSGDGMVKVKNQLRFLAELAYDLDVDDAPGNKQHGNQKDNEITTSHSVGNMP

B1: 1A1-based GPC3×CD3 HBiTE (bispecific antibody)
light: EIVLTQSPLSLPVTLGQPASISCRSSQSLVYSDGNTYLNWFHQRPGQSPRRLIYKVSNRDSGVPERFSGSGSGTDFTLKISRVEAEDVGVYYCMQSTHWPLTFGGGTKVEIKGGGGSGGGGSGGGGSEIVVTQSPATLSVSPGERATLSCRSSTGAVTTSNYANWVQQKPGQAPRGLIGGANKRAPGVPARFSGSLSGDEATLTISSLQSEDFAVYYCALWYSNLWVFGQGTKLEIKRTVAAPSVFIFPPSDEQLKSGTASVVCLLNNFYPREAKVQWKVDNALQSGNSQESVTEQDSKDSTYSLSSTLTLSKADYEKHKVYACEVTHQGLSSPVTKSFNRGE[human IgG1 Fc with T366L Y407H (EU numbers) not written out]
heavy: EVQLVQSGAEVKKPGASVKVSCKASGYTFTSYGISWVRQAPGQGLEWMGWISAYNGNTNYAQKLQGRVTMTTDTSTSTAYMELRSLRSDDTAVYYCARAGTPTQILRYFDWLSQPFDYWGQGTLVTVSSGGGSSGGGGSGGGGSEVQLVESGGGLVQPGGSLRLSCAASGFTFNTYAMNWVRQAPGKGLEWVARIRSKYNNYATYYADSVKGRFTISRDDSKNTLYLQMNSLRAEDTAVYYCARHGNFGSSYVSYFAYWGQGTTVTVSSASTKGPSVFPLAPSSKSTSGGTAALGCLVKDYFPEPVTVSWNSGALTSGVHTFPAVLQSSGLYSLSSVVTVPSSSLGTQTYICNVNHKPSNTKVDKKVEPKS[human IgG1 Fc with T366L Y407H (EU numbers) not written out]
notes: Heterodimer of one light and one heavy chain; Light: anti-GPC3 VL, linker, anti-CD3 (hSP34) VL-CL, monomeric Fc mFc7.2 (T366L, Y407H); Heavy: anti-GPC3 VH, linker, anti-CD3 VH-CH1, mFc7.2; also called 1A1 HBiTE
[1]
  EC50 of HepG2 killing (cell electrical impedance, PBMC effector cells, target:effector 1:5): 1.76 ng/mL
  EC50 of HuH7 killing (cell electrical impedance, PBMC effector cells, target:effector 1:5): 0.491 ng/mL
  EC50 of LS174T-GPC3 killing (CCK-8 assay, PBMC effector cells, target:effector 1:5): 1.25 ng/mL
  EC50 of RPMI8226 killing (LDH and CCK8 assays, PBMC effector cells, target:effector 1:5): 0.589 ng/mL
[2]
  EC50: 48.6 nM
[3]
  EC50: 41.2 nM
Recombinant mouse GPC3
  EC50: 69.8 nM
Recombinant human CD3
  EC50: 10.8 nM
